Experiment [1] deals with HT29 colon. Briefly: NCI-60 one-dose screen, 48 h (100 = growth as untreated, 0 = no growth, -100 = all killed). Conditions: 25 µM.
For experiment [2], the system named is SNB-75 CNS. The description is as above. The settings on record: 0.25 µM.

Some compounds were tested as several samples or in several runs, with calls that do not always agree.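 For each line, cells grew in 96-well plates with the test compound present at a single concentration for 48 hours.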 Not every entry of the source has a single result; some have several. This is not the full list of results. An entry can have further records. The calls were made as follows: active = growth percent below 10; inactive = the rest. These are repeated runs of one drug, at the concentration stated with the values; one value stands for one run. Counts like (3×) give the number of equal values in this list.

Turning to `COc1cccc2c1C(=O)c1c(O)c3c(c(O)c1C2=O)C[C@@](O)(C(=O)CO)C[C@@H]3OC1CC(N)C(O)C(C)O1` (stereo not given in full), the growth result is “active: 3.99, -1.93, 0.922, 3.8, -34.8, -22.2, -50, -55.2, -45.4, 4.8, -3.32, -60.6, 9.37, -13.7, -51.9, -30.9, -25.4, -7.2, -21.2, -22.4, -9.12% and inactive: 11.7%” in experiment [1] (runs of 1998); “active: 1.96, -20, -42.4, 2.1, -35.9, -86.1, 0.711, -63.8, 0.123, -67.1, -42.5, 4.06, -2.58, -35.7, -81.3, -47.5, -6.61%” in experiment [1] (runs of 1999); “active: 0.0349, -100, -42.6, -7.29%” in experiment [1] (runs of 2000); “active: 9.24% and inactive: 33%” in experiment [2] (runs of 2006); “inactive: 20.2, 43.8, 13.1, 15, 46.2 (2×), 49.7, 26.4, 23.3, 39.9 (2×), 43.2, 13.8, 10.2, 21.7, 22.1, 39.4, 50.6, 38.5 (2×), 33.6, 33.7, 36.7, 18.1, 41.6 (2×), 51.8, 55.8 (2×), 52.6, 67.4, 45.2, 42.7, 67, 69.1, 26.9 (2×), 50, 31.8, 19.4, 32.1, 41.9% and active: -4.5%, 8.69%, 4.18%” in experiment [2] (runs of 2007); “inactive: 43.8, 37.6, 53.9, 13.8 (2×), 39, 36.6, 37.7, 44, 21.1, 38.7, 39.7, 43, 50.9, 47.4, 43.3 (2×), 37.3, 48.2, 34.4, 18, 17.3, 30.5, 10.8, 74.7, 17.2, 41.5, 17.8, 17.5, 18.8, 33.6 (2×), 22.9, 29.2, 20, 28.3, 49.2, 36.5, 12.1, 34.1, 23.5, 36, 19.8, 22.8% and active: -23.5, 1.73, 5.28, 0.797, -4.04, -7.62, -38.9, 5.27, -11.4, -14.4, -10.7, -20.6%” in experiment [2] (runs of 2008). In addition, the growth entry is “inactive: 26.8, 31.4, 44, 39.6, 25.9, 29.2, 23.7 (2×), 38.7, 33.1 (2×), 32.1, 41.3, 35.7 (2×), 21.7, 32.9 (2×), 38.3, 37.8 (2×), 33.3, 25.7, 27.2, 26 (2×), 25, 24.6, 33.4, 15.2, 59.9, 36.1, 51.6, 40.2, 20.3, 17.1, 11.5, 22.8, 34.7, 40.8, 40.4, 44.5, 32.2, 25.2, 13.5, 19.7, 22.4, 22.2, 41.6, 35.6, 18.9, 11, 60.2, 38.6, 18.4, 46.4, 36, 44.8, 39.1, 50.1, 20.9, 24.3% and active: -2.03, -27.5, 8.03, 9.57%” in experiment [2] (runs of 2009); “inactive: 34.4 (3×), 41.6, 28.6, 39.1 (2×), 39.6, 27.1, 21.2 (2×), 44.8, 35.9, 28.8, 35 (2×), 27.3, 37.6, 18.4, 20.1, 22.5, 23.9, 38.2, 13.8, 24.6, 19.2, 29.7 (2×), 16.6, 17.3, 21.7, 49.4, 10.5, 31.4 (2×), 24.8, 27.6 (2×), 25.6, 31.9, 19.4, 29.9, 39.3, 29.4, 37.3 (2×), 37.2, 40.4, 24.5, 36.8, 30.9% and active: 2.34%, 2.11%” in experiment [2] (runs of 2010); “inactive: 41.6, 45, 38.1, 33, 27.2 (2×), 27.7, 43, 23.8, 61, 42.8, 29, 29.4, 29.7, 37.6, 31.4, 45.4 (2×), 33.5, 38.9, 47, 46.8, 42.4, 50.6, 41.3, 41, 44.8, 40.2, 41.7, 31.6, 46.2, 49.3, 34.7, 28.4, 36.1, 18.3, 36.7, 41.9 (2×), 37.4, 26.6, 20.6, 14.2, 18.5, 23.5, 42.6, 31.2 (2×), 23.9, 35.2, 29.9, 32.1, 39.7, 29.8, 37.5% and active: 4.23%” in experiment [2] (runs of 2011); “inactive: 34.7, 22.4, 29.9, 30.4, 37.4, 35, 38.5, 41.4 (2×), 31.1, 28.6, 27.1, 32.8, 32.9 (2×), 22.5, 24.7 (2×), 26.1, 20.3, 23.6, 40.8, 37 (2×), 33, 44.6, 41.3, 38.3 (2×), 18.2, 44, 44.1, 47.7, 39.5, 42.7, 35.1 (2×), 23.1, 36.2, 37.8, 29.6, 29.8, 29.1, 33.1, 39.2, 41.5, 44.7, 37.7, 49.9, 56.5, 43.7, 41, 45.4, 40.6, 54.2, 34.3, 24.1, 25.9, 22.3, 10.9, 37.2, 28.8, 18.3, 21.8, 21.4, 28.9% and active: 6.89%, -13.6%” in experiment [2] (runs of 2012); “inactive: 30.5, 31.3, 28.4, 53.1, 59.2, 37.1 (2×), 39.8, 30.1 (2×), 38.8, 30.2 (2×), 33.8, 16.4, 35.1, 35.9, 43.8 (2×), 37.3, 44.5, 38.2, 44.6, 40.2, 37.4, 43.7, 43.3, 38.7, 37.8, 39.6, 32, 39.2, 33.5, 50.1, 12.8, 46.6, 41.1, 33, 46.8 (2×), 40.4, 41.7, 32.1, 40.6, 39.3, 49.7, 42.8, 42.1, 45 (2×), 46.2, 52.3, 56.4, 35.5, 47, 37, 42.7 (2×), 21.6, 25, 15.9, 28.3, 19.4, 15.7, 19.6, 31.7, 23.7, 24.7, 24.3% and active: 2.06%, -1.01%” in experiment [2] (runs of 2013); “inactive: 28.9, 31.9, 22.8, 17.3 (2×), 11, 14.5, 13.3, 18.8, 31.1, 23.2, 21.9, 24.7, 22.1, 19.7, 20.5, 19.8, 21.4, 17.5 (2×), 21.2, 25.7, 33.1, 36.5, 29.4, 29.7, 31.3, 29.2, 25.8, 32.1, 26.4, 17.9, 25.3, 18.4, 33.4, 29.8, 24.8, 20.2, 34.2 (2×), 28.5, 30.4 (2×), 33.6, 24, 11.2, 25.9, 36.1, 18.5, 17.8, 16.9, 26.9, 22.9, 23.5, 24.6, 23.8, 37.2, 22.5, 28 (2×), 32.4, 34.3, 30.2 (2×), 25.6, 35.7, 32.3, 41.9, 37, 52.7, 29.5, 42.1, 19.4, 44.1, 39.1, 46.1, 45%” in experiment [2] (runs of 2014). The growth entry in experiment [2] (runs of 2015) was “inactive: 24.7, 24.6, 27.6 (2×), 23.3, 29.5, 30.1, 37, 33.2, 41.4, 43.8, 40.5 (2×), 24.3 (2×), 32, 46.7, 28 (2×), 38.5, 27.5, 22.3, 28.9 (2×), 46.4, 32.1, 30.2, 25.8, 28.5, 25.2, 27.7, 26.9, 31.1, 29.3, 27.3, 25, 31.4 (2×), 49.9, 48.6, 38.2, 28.8, 34.5, 32.3, 35.7, 35.1, 36.6, 29.4, 21.7, 19.4, 29.9, 26.7, 21.8, 15.3, 18.7, 47.9, 29.8, 33.8, 41.6, 36.8 (2×), 35.5, 36, 39.4, 47.4, 44.6, 37.7, 43.6, 45.3, 37.2, 36.5, 35, 25.9, 37.5, 38.7, 54.5, 54, 40.6, 33.3, 36.1, 30.8, 34.7% and active: 9.04%, -3.73%”; in experiment [2] (runs of 2016), “inactive: 45.9, 36.5, 38.9, 48.2, 50.1, 31, 33.8, 32.5, 15 (2×), 20.8, 31.2, 31.7 (2×), 14.9, 20.4 (2×), 14.3, 15.4, 12.5, 18.4, 10.8, 18.2, 20, 27.1, 18, 32.4, 26, 27.4, 34.2, 26.2, 30.9, 31.4, 32, 29.8, 35.7, 27.7, 33.5, 35 (2×), 40.8 (2×), 32.1, 37.8, 28.8, 42.1, 42.8 (2×), 44, 39.2, 34.3, 39.9 (2×), 35.8, 30.5, 37.6, 41, 49.7, 41.7, 46.7, 38.7, 48, 44.9, 54.2, 27.6, 46, 46.6, 41.4, 49.4 (2×), 47.9, 56.3, 35.1, 37, 40.4, 46.8, 53.3, 48.1, 43.6, 23.4, 25.9, 44.7, 43.5, 36.6, 35.3, 47.5%”; in experiment [2] (runs of 2017), “inactive: 40.4, 40.3, 39.8, 40.8, 42.2, 37.6, 19.7, 21.7, 20.6, 26, 22.1, 32.9 (2×), 30.5, 31.6, 24.3, 24.2, 27.6, 30.8, 28.3, 38.3 (2×), 40.7, 40.2, 39.9, 25.7 (2×), 41.5 (4×), 43.8, 34.3, 38.4 (2×), 39.1, 33 (3×), 35.7, 29.1, 31.1, 25.4, 31.4, 29.4 (3×), 30.9, 38.9, 28.5, 26.7, 33.8 (2×), 33.9, 29.5, 41.3, 33.1, 29, 36.7, 42.1, 31, 22.3, 31.8, 25.8 (2×), 25, 37, 33.4, 18.4, 17.2, 28.6, 29.8 (2×), 28.2, 32, 34.7, 33.6%”.

Source of the values: PubChem BioAssay (NCI).
